System: osteoclast-like cells, OCL
Test: Intracellular calcium (fura-2/AM), RANKL-induced calcium influx
Details: 0.1 μM, FIGS. 14 and 15
Experimental: The key transcription factor, NFATc1, is affected by MAP kinases/c-Fos and also influenced by the calcium pathway. […] . Macrophages, RAW264.7, are stimulated by RANKL for 4 minutes, and a fluorescent probe of calcium (fura-2/AM) is used to exam the inner-cellular calcium. As shown in FIG. 14(A), the concentration of the inner-cellular calcium dose not change obviously. In the cell culture, the stimulation of RANKL is applied in advance for one week to make macrophages to differentiate into osteocalast-like cells, OCL, and then the osteoclast-like cells are stimulated by RANKL can obviously increase the concentration of inner-cellular calcium.

Cn1c(=O)c2c(ncn2CCN2CCN(c3ccccc3Cl)CC2)n(C)c1=O [KMUP-1, 7-[2-[4-(2-Chlorophenyl)piperazin-1-yl]ethyl] theophylline]
RANKL-induced extracellular calcium influx: cannot apparently inhibit RANKL inducing extracellular calcium influx
